In the BET-seq Pho4 binding data (Le et al. 2018):
This is one part of the list. The energies were worked out here from pooled read counts, against the library average; single values are noisy.

These sequences were tested against T1, Pho4 (S. cerevisiae) (UniProt P07270) (assay: relative binding free energy (BET-seq); higher = weaker binding). Settings: reference: library average.
T1 sequence: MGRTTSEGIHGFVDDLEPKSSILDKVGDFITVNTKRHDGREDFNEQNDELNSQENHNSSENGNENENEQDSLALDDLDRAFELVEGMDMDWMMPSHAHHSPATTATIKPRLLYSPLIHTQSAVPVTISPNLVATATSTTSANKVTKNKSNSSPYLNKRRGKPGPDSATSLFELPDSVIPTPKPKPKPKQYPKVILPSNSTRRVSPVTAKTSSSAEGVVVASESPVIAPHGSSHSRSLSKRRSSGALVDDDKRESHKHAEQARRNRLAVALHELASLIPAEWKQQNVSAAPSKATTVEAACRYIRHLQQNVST

| Sequence | relative binding free energy [kcal/mol] |
| --- | --- |
| ATTGCCACGTGGAATG | 0.08 |
| TGTAGCACGTGAGGCA | 0 |
| GTTCACACGTGGGGGC | 0.08 |
| GTAGGCACGTGGGCTC | -0.07 |
| GGGGGCACGTGACGGC | -0.09 |
| TGAGACACGTGAAGGA | 0.24 |
| TGGTTCACGTGCCGAG | 0.12 |
| GTGGGCACGTGGCGCT | -0.21 |
| GAATTCACGTGATTTG | 0.52 |
| GTGGCCACGTGACGGT | 0.14 |
| TAGGTCACGTGAAGTT | 0.4 |
| GAGGACACGTGATTTT | 0.28 |
| CAGGGCACGTGGCGAT | -0.14 |
| TAGTGCACGTGTGTAT | 0.03 |
| GGTGACACGTGTCGGA | 0.14 |
| CTTTGCACGTGCGGTG | -0.02 |
| TGGCACACGTGTTCGT | 0.1 |
| TGGGTCACGTGATTTG | 0.38 |
| GCTTGCACGTGGTGTC | 0.04 |
| ATTGTCACGTGCGTGG | 0.02 |
| CTGGGCACGTGAGTGC | 0.07 |
| GTGTACACGTGAAGGG | 0.35 |
| GTAGACACGTGTTGCG | 0 |

| Sequence | relative binding free energy [kcal/mol] |
| --- | --- |
| TTTCACACGTGTGAGG | 0.12 |
| TGTTGCACGTGAACGT | 0 |
| CGATTCACGTGTAGGT | 0.22 |
| GAGTCCACGTGGAGGG | 0 |
| GGAAACACGTGAAGTT | 0.37 |
| AAGGGCACGTGGTACT | -0.16 |
| AGTGACACGTGTTGTT | 0.06 |
| GTCATCACGTGTGGGT | 0.21 |
| CTTTTCACGTGGTATA | 0.07 |
| TAGTGCACGTGATTTT | -0.02 |
| ATTATCACGTGTCGTT | 0.14 |
| CGAGTCACGTGGATTG | 0.08 |
| AACATCACGTGATGGG | 0.29 |
| GAATGCACGTGTTGAT | 0.06 |
| GTATTCACGTGCTTTG | 0.36 |
| TTAAGCACGTGTAAGT | 0.03 |
| ATTAGCACGTGTTCAG | -0.08 |
| GGACACACGTGGGGAT | -0.02 |
| TGTATCACGTGTGGGG | 0.26 |
| GTTCTCACGTGGATTT | 0.32 |
| AGGAGCACGTGTAAGG | 0.08 |
| GAAGGCACGTGGGTTG | -0.25 |
| CCTTGCACGTGTTAGG | 0.14 |

| Sequence | relative binding free energy [kcal/mol] |
| --- | --- |
| TAAGGCACGTGCAGGG | -0.12 |
| TGTTTCACGTGAGTTG | 0.35 |
| AATAGCACGTGTCTGG | -0.11 |
| AAAAGCACGTGGGTAA | -0.14 |
| TCGGGCACGTGGATTA | -0.03 |
| TTTCGCACGTGGTGCT | -0.2 |
| TTCTTCACGTGACGGG | 0.34 |
| AGATTCACGTGCTTGT | 0.24 |
| AGGTTCACGTGGTTAA | 0.19 |
| TTTGCCACGTGGTAGA | -0.24 |
| GAGTGCACGTGTAGCG | 0.02 |
| AAGGTCACGTGGGCTG | -0.03 |
| GTTGGCACGTGCCGGG | -0.15 |
| GGAATCACGTGGGGAG | 0.07 |
| TTCTACACGTGTTAAT | 0.2 |
| GGTAGCACGTGTTATA | -0.03 |
| GGTGGCACGTGTCAGC | 0.01 |
| TTGTTCACGTGTACGT | 0.35 |
| TGGTCCACGTGTGCTA | 0.07 |
| TCAAGCACGTGTGTAA | 0.1 |
| TGTAGCACGTGTGGAA | 0 |
| TTATTCACGTGGTCTG | 0.09 |
| TTTAACACGTGTACGT | 0.01 |

| Sequence | relative binding free energy [kcal/mol] |
| --- | --- |
| ATGACCACGTGTTTTG | 0.04 |
| TGGAGCACGTGAAATT | 0.42 |
| TGACGCACGTGGGCTG | -0.12 |
| TTGTGCACGTGCGGAA | -0.03 |
| TAAAGCACGTGGTTGT | -0.1 |
| GGGACCACGTGTGTGG | 0.08 |
| GTAATCACGTGGCAGT | 0.1 |
| TGACGCACGTGTTGAA | 0 |
| GCGGGCACGTGGTCGG | -0.22 |
| TACAGCACGTGGTAGG | -0.19 |
| TGCGACACGTGAAGTG | 0.36 |
| TGATGCACGTGGTGTA | -0.09 |
| GATAGCACGTGGGTGA | -0.19 |
| TGGCGCACGTGACTTG | 0.21 |
| GGACTCACGTGGTGCG | 0.17 |
| ATGTACACGTGGGTAT | -0.11 |
| TCTGGCACGTGGTGGT | -0.15 |
| TTAGCCACGTGTGCTT | 0.01 |
| CTTGCCACGTGAGGGT | 0 |
| TGAAGCACGTGGTGTA | -0.11 |
| CCGTGCACGTGAGGGG | 0.17 |
| CTTAGCACGTGTGGAG | 0.07 |
| TGATACACGTGCGGAT | 0.08 |

| Sequence | relative binding free energy [kcal/mol] |
| --- | --- |
| GGAAGCACGTGCGGTG | -0.23 |
| TGGAGCACGTGATGTT | 0.1 |
| GTTAGCACGTGTGCTG | -0.04 |
| ATATACACGTGTATTA | 0.02 |
| TGCGGCACGTGAGTGT | 0.02 |
| TGGAGCACGTGGTAAG | -0.18 |
| TGAAGCACGTGGGGTT | -0.23 |
| CAGGTCACGTGGGGTA | -0.1 |
| TTTAACACGTGAGGTG | 0.35 |
| AATGGCACGTGTCGTT | -0.09 |
| GGTGTCACGTGTGATT | 0.23 |
| TTGATCACGTGAAGTG | 0.37 |
| AGGATCACGTGACTTG | 0.32 |
| TGCGACACGTGGTGCG | -0.11 |
| GGGAACACGTGTAATG | 0.15 |
| GGAGACACGTGTTGGA | -0.03 |
| TATAACACGTGTAGGC | 0.05 |
| TGGGGCACGTGGGAAC | -0.07 |
| AATGACACGTGGGGAT | -0.24 |
| CTATCCACGTGTGGGG | 0.01 |
| TCGGTCACGTGATGGA | 0.23 |
| TTAGTCACGTGTGGAC | 0.18 |
| AGTTGCACGTGGGCGT | -0.08 |
